Measured values taken from the supplement of paper PMC12355420.
Where “and” joins values, the source holds several entries; their conditions need not be identical. Identical values can stand only once. Counter-ions that a name gives are not always drawn. The list shows a part of the results. No stated cut-off is given here; in the data, active = 0.5 or less and inactive = the rest. Many values rest on one well or one pass, so single values are uncertain.

How the values were obtained:
Settings in all cases: 50 µM; 24 h
[1] = test system: HeLa VPS33A reporter cells; assay: relative cell viability (CellMask signal) vs DMSO (fraction of DMSO); higher = less cytotoxic;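 further: primary screen of an FDA-approved drug library in HeLa reporter cells in 96-well format, CellMask signal normalized to DMSO-treated wells set as 1, under 0.5 deemed highly cytotoxic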
[2] = test system: HeLa VPS33A R498W KI + HA-SDC1-FLAG; assay: relative GAG core protein HA-SDC1 amount per cell number vs DMSO (fraction of DMSO); higher = more SDC1 (GAG core protein);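 further: HA-SDC1 level read out by In-Cell Western staining with an anti-HA antibody against the N-terminal tag, screening FDA-approved library drugs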
[3] = test system: HeLa VPS33A KO + NLuc-VPS33A R498W; assay: relative mutant VPS33A R498W amount (NanoLuc luminescence) vs DMSO (fraction of DMSO); HeLa model of a glycosaminoglycan (GAG) storage disease; KI is knock-in and KO knock-out; SDC1 is syndecan 1; higher = higher mutant VPS33A level;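 further: screen of an FDA-approved drug library, NanoLuc luminescence read after lysing the treated cells, taken as a measure of mutant VPS33A protein stability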

SMILES | relative cell viability [1] | relative GAG core protein HA-SDC1 amount per cell number [2] | relative mutant VPS33A R498W amount [3]
COc1cc(C)c(/C=C/C(C)=C/C=C/C(C)=C/C(=O)O)c(C)c1C [Acitretin] | 0.513 | active: 0.475 | 3.6
Oc1cc(O)c2c(c1)O[C@H](c1ccc(O)c(O)c1)[C@@H](O)C2 [(+)-Catechin hydrate] | 1.04 | inactive: 0.737 | 0.933
O=P(O)(O)C(O)(Cc1cccnc1)P(=O)(O)O [Risedronate Sodium] | 0.968 | inactive: 1.45 | 1.12
OC[C@@]1(O)OC[C@@H](O)[C@@H](O)[C@@H]1O [Fructose] | 0.914 | inactive: 1.01 | 0.971
CC(C)=C1C/C=C(\C)CC/C=C(\C)CC1=O [Germacrone] | 0.992 | inactive: 0.7 | 0.903
N[C@@H](C=O)[C@@H](O)[C@H](O)[C@H](O)CO [Chitosamine hydrochloride] | 1 | inactive: 0.962 | 1.1
Cc1cc(NS(=O)(=O)c2ccc(N)cc2)no1 [Sulfamethoxazole] | 1.13 | inactive: 0.822 | 1.21
Oc1cc(O)c2c(c1)O[C@H](c1ccc(O)c(O)c1)[C@H](O)C2 [(-)-epicatechin] | 1.08 | inactive: 0.689 | 1.06
Nc1c(Br)cc(Br)cc1CN[C@H]1CC[C@H](O)CC1 [Ambroxol HCl] | 1.04 | inactive: 0.57 | 0.812
CC(=O)Oc1ccccc1C(=O)O [Aspirin (Acetylsalicylic acid)] | 1.05 | inactive: 1.04 | 1.09
COc1cc(C(=O)O)ccc1NC(=O)[C@@H]1N[C@@H](CC(C)(C)C)[C@](C#N)(c2ccc(Cl)cc2F)[C@H]1c1cccc(Cl)c1F | 0.547 | inactive: 0.524 | 0.925
C[N+]1(C)[C@@H]2C[C@@H](OC(=O)C(O)(c3cccs3)c3cccs3)C[C@H]1[C@@H]1O[C@@H]12 [Tiotropium Bromide] | 1.06 | inactive: 1.38 | 1.3
CN1[C@@H]2CC[C@H]1C[C@@H](OC(=O)c1c[nH]c3ccccc13)C2 [Tropisetron] | 1.06 | inactive: 0.895 | 1.11
C=C1CC[C@@H]2[C@](C)(CO)[C@H](O)CC[C@@]2(C)[C@@H]1C/C=C1/C(=O)OC[C@H]1O [Andrographolide] | 0.827 | active: 0.326 | 2.16
CC[C@H]1OC(=O)[C@H](C)[C@@H](O[C@H]2C[C@@](C)(OC)[C@@H](O)[C@H](C)O2)[C@H](C)[C@@H](O[C@@H]2O[C@H](C)C[C@H](N(C)C)[C@H]2O)[C@](C)(O)C[C@@H](C)[C@@H]2N[C@@H](COCCOC)O[C@H]([C@H]2C)[C@]1(C)O [Dirithromycin] | 0.947 | inactive: 0.809 | 0.886
N[C@@H](CC(=O)O)C(=O)O [L-Aspartic acid] | 1.05 | inactive: 0.761 | 0.979
CC(C)NCC(O)c1ccc(NS(C)(=O)=O)cc1 (stereo not given) [Sotalol] | 1.16 | inactive: 0.956 | 1.32
Cc1cccc(CN2CCN(C(c3ccccc3)c3ccc(Cl)cc3)CC2)c1 (stereo not given) [Meclizine 2HCl] | 0.707 | active: 0.322 | 0.522
C[N+](C)(C)CCOC(N)=O [Carbamoylcholine chloride] | 1.25 | inactive: 0.674 | 1.09
Cc1ccc(C(=O)Nc2ccc(S(=O)(=O)O)c3cc(S(=O)(=O)O)cc(S(=O)(=O)O)c23)cc1NC(=O)c1cccc(NC(=O)Nc2cccc(C(=O)Nc3cc(C(=O)Nc4ccc(S(=O)(=O)O)c5cc(S(=O)(=O)O)cc(S(=O)(=O)O)c45)ccc3C)c2)c1 [Suramin hexasodium salt] | 1.36 | inactive: 0.608 | 0.966
CC[C@@]1(O)C(=O)OCc2c1cc1n(c2=O)Cc2cc3cc(O)ccc3nc2-1 [(S)-10-Hydroxycamptothecin] | 1.14 | inactive: 0.547 | 0.572
OC(CCN1CCCCC1)(c1ccccc1)C1CC2C=CC1C2 (stereo not given) [Biperiden HCl] | 0.726 | inactive: 0.514 | 0.93
CCc1c2c(nc3ccc(OC(=O)N4CCC(N5CCCCC5)CC4)cc13)-c1cc3c(c(=O)n1C2)COC(=O)[C@]3(O)CC [Irinotecan hydrochloride] | 1.07 | inactive: 0.644 | 0.764
Cc1cccc(C#Cc2ccccc2)n1 | 0.966 | inactive: 0.766 | 0.64
CC1=CC(=O)CC(C)(C)C1(O)/C=C/C(C)=C\C(=O)O (stereo not given) [Abscisic Acid (Dormin)] | 0.963 | inactive: 0.939 | 1.12

SMILES | relative cell viability [1] | relative GAG core protein HA-SDC1 amount per cell number [2] | relative mutant VPS33A R498W amount [3]
CO[C@H]1/C=C/O[C@@]2(C)Oc3c(C)c(O)c4c(O)c(c5c(nc6cc(C)ccn65)c4c3C2=O)NC(=O)/C(C)=C\C=C\[C@H](C)[C@H](O)[C@@H](C)[C@@H](O)[C@@H](C)[C@H](OC(C)=O)[C@@H]1C [Rifaximin (Xifaxan)] | 1.04 | active: 0.18 | 2.52
CC(C)=CCC[C@](C)(O[C@@H]1O[C@H](CO[C@@H]2O[C@H](CO)[C@@H](O)[C@H](O)[C@H]2O)[C@@H](O)[C@H](O)[C@H]1O)[C@H]1CC[C@]2(C)[C@@H]1[C@H](O)C[C@@H]1[C@@]3(C)CC[C@H](O[C@@H]4O[C@H](CO)[C@@H](O)[C@H](O)[C@H]4O[C@@H]4O[C@H](CO)[C@@H](O)[C@H](O)[C@H]4O)C(C)(C)[C@@H]3CC[C@]12C [Ginsenoside Rb1] | 0.918 | inactive: 0.689 | 1.34
CC1(C)[C@@H](O)CC[C@]2(C)[C@H]3C(=O)C=C4[C@@H]5C[C@@](C)(C(=O)O)CC[C@]5(C)CC[C@@]4(C)[C@]3(C)CC[C@@H]12 [Enoxolone] | 1.07 | inactive: 0.892 | 1.35
CC(C(=O)O)c1cccc(Oc2ccccc2)c1 (stereo not given) [Fenoprofen Calcium] | 1.02 | inactive: 0.906 | 0.955
CCN1CC(CCN2CCOCC2)C(c2ccccc2)(c2ccccc2)C1=O (stereo not given) [Doxapram HCl] | 1.18 | inactive: 0.921 | 0.782
CCOC(=O)C1=C[C@@H](OC(CC)CC)[C@H](NC(C)=O)[C@@H](N)C1 [Oseltamivir phosphate] | 0.891 | inactive: 0.924 | 1.37
CCCCCCCC/C=C\CCCCCCCC(=O)O [Oleic Acid] | 0.918 | inactive: 1.1 | 1.46
CC(C)[C@H](N)C(=O)O [L-Valine] | 1.06 | inactive: 0.939 | 1.06
Nc1cccc2c1CN(C1CCC(=O)NC1=O)C2=O (stereo not given) [Lenalidomide (CC-5013)] | 1.28 | inactive: 1.01 | 0.8
Cn1cnc2c(F)c(Nc3ccc(Br)cc3Cl)c(C(=O)NOCCO)cc21 [AZD6244 (Selumetinib)] | 1.4 | inactive: 1.24 | 0.97
CC(C)(Oc1ccc(C(=O)c2ccc(Cl)cc2)cc1)C(=O)O [Choline Fenofibrate] | 1.12 | inactive: 0.962 | 0.82
O=C(Nc1ccc([N+](=O)[O-])cc1Cl)c1cc(Cl)ccc1O [Niclosamide] | 1.03 | inactive: 0.632 | 1.58
CN(C)C(=N)NC(=N)N [Metformin HCl] | 0.963 | inactive: 0.902 | 1.26
C=C[C@H]1CN2CC[C@H]1C[C@H]2[C@H](O)c1ccnc2ccc(OC)cc12 [Quinine HCl Dihydrate] | 1.01 | inactive: 0.829 | 1.59
c1ccc(-c2ccc(C(c3ccccc3)n3ccnc3)cc2)cc1 (stereo not given) [Bifonazole] | 1.11 | inactive: 0.882 | 0.955
CN1CCN(c2nc(C3=C(c4c[nH]c5ccccc45)C(=O)NC3=O)c3ccccc3n2)CC1 [Sotrastaurin (AEB071)] | 1.37 | inactive: 0.783 | 0.776
COc1cc2nccc(Oc3ccc(NC(=O)C4(C(=O)Nc5ccc(F)cc5)CC4)cc3)c2cc1OC [Cabozantinib malate (XL184)] | 1.27 | inactive: 0.645 | 0.341
CC(=O)Nc1cccc(-n2c(=O)n(C3CC3)c(=O)c3c(Nc4ccc(I)cc4F)n(C)c(=O)c(C)c32)c1 | 1.08 | inactive: 1.07 | 1.16
C[C@@H]1CCO[C@H]2Cn3cc(C(=O)NCc4ccc(F)cc4F)c(=O)c(O)c3C(=O)N12 | 1.1 and 1.06 | inactive: 0.9 and inactive: 0.76 | 0.754 and 0.878
CSCC[C@H](N)C(=O)O [L-Methionine] | 0.969 | inactive: 0.777 | 0.793
CC(=O)N[C@H]1[C@H]([C@H](O)[C@H](O)CO)OC(O)(C(=O)O)C[C@@H]1O (stereo not given in full) [N-Acetylneuraminic acid] | 1.06 | inactive: 0.999 | 1.01
C=C1C[C@@]23CC[C@H]4[C@@](C)(CCC[C@@]4(C)C(=O)O[C@@H]4O[C@H](CO)[C@@H](O)[C@H](O)[C@H]4O)[C@@H]2CC[C@]1(O[C@@H]1O[C@H](CO)[C@@H](O)[C@H](O)[C@H]1O[C@@H]1O[C@H](CO)[C@@H](O)[C@H](O)[C@H]1O)C3 [Stevioside] | 1.09 | inactive: 1.02 | 1.5
Cn1nnc(-c2ccc(-c3ccc(N4C[C@H](CO)OC4=O)cc3F)cn2)n1 [Tedizolid] | 1.14 | inactive: 1.05 | 0.675
CC(NCCc1ccc(O)cc1)C(O)c1ccc(O)cc1 (stereo not given) [Ritodrine HCl] | 1.32 | inactive: 0.884 | 1.28
CC(C)=CCC[C@](C)(O[C@@H]1O[C@H](CO)[C@@H](O)[C@H](O)[C@H]1O)[C@H]1CC[C@]2(C)[C@@H]1[C@H](O)C[C@@H]1[C@@]3(C)CC[C@H](O)C(C)(C)[C@@H]3[C@@H](O[C@@H]3O[C@H](CO)[C@@H](O)[C@H](O)[C@H]3O)C[C@]12C [Ginsenoside Rg1] | 0.918 | inactive: 0.715 | 1.3
